Reference: the supplement of paper PMC10369915
This is one part of the list. Cut-off read from the data, not from the text of the source: active = 3.2 or more and inactive = the rest. Most of these values are background signal.

molecular target: SHP2 C-SH2 domain E139D; experiment: enrichment score (SH2-bound / input frequency) (ratio); bacterial display of known human phosphotyrosine sites (pTyr-Var adds point mutants) read by sequencing; higher = stronger binding; tyrosines were phosphorylated by kinases first; settings: peptide library: pTyr-Var
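Note: displayed peptides selected on beads carrying the immobilized SH2 domain, with library peptides lacking any tyrosine serving as negative controls.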

Row | Binder | enrichment score
1 | LSAPCYLNRIS [HEXA_Y421_W420C] | inactive: 1.12
2 | GAVGHYVLAER [HFE_Y342_M339V] | inactive: 0.669
3 | GNLLIYTKFGK [HGD_Y166_E168K] | inactive: 1.27
4 | TFRPPYYHRNC [HGD_Y333] | inactive: 1.54
5 | TCRPPYYHRNC [HGD_Y333_F329C] | inactive: 0.683
6 | TFRPPYYHRDC [HGD_Y333_N337D] | inactive: 2.33
7 | TFRPPYFHRDC [HGD_Y333_N337D_YF] | inactive: 1.81
8 | FRPPYYHRNCM [HGD_Y334] | active: 3.3
9 | CRPPYYHRNCM [HGD_Y334_F329C] | active: 4.31
10 | CRPPFYHRNCM [HGD_Y334_F329C_YF] | inactive: 2.9
11 | FRPPFYHRDCM [HGD_Y334_N337D_YF] | inactive: 2.32
12 | CPYNLYAEQLS [HGD_Y40] | inactive: 1.09
13 | CPYNLYAEQFS [HGD_Y40_L44F] | inactive: 0.916
14 | CPFNLYAEQLS [HGD_Y40_YF] | inactive: 1.23
15 | MGGSVYFSYPD [HIKESHI_Y55] | inactive: 1.5
16 | MGGSLYFSYPD [HIKESHI_Y55_V54L] | inactive: 1.15
17 | MGGSLYFSFPD [HIKESHI_Y55_V54L_YF] | inactive: 1.3
18 | MGGSVYFSFPD [HIKESHI_Y55_YF] | inactive: 1.38
19 | GGQSVYHVHLH [HINT1_Y109] | inactive: 2.61

molecular target: SHP2 C-SH2 domain wild-type; experiment: as above; settings: peptide library: pTyr-Var

Row | Binder | enrichment score
20 | LSAPCYLNRIS [HEXA_Y421_W420C] | inactive: 0.832
21 | GAVGHYVLAER [HFE_Y342_M339V] | inactive: 0.771
22 | GNLLIYTKFGK [HGD_Y166_E168K] | inactive: 2.42
23 | TFRPPYYHRNC [HGD_Y333] | inactive: 1.38
24 | TCRPPYYHRNC [HGD_Y333_F329C] | inactive: 1.32
25 | TFRPPYYHRDC [HGD_Y333_N337D] | inactive: 1.77
26 | TFRPPYFHRDC [HGD_Y333_N337D_YF] | inactive: 1.45
27 | FRPPYYHRNCM [HGD_Y334] | inactive: 2.47
28 | CRPPYYHRNCM [HGD_Y334_F329C] | inactive: 3.19
29 | CRPPFYHRNCM [HGD_Y334_F329C_YF] | inactive: 2.33
30 | FRPPFYHRDCM [HGD_Y334_N337D_YF] | inactive: 2.17
31 | CPYNLYAEQLS [HGD_Y40] | inactive: 1.15
32 | CPYNLYAEQFS [HGD_Y40_L44F] | inactive: 0.939
33 | CPFNLYAEQLS [HGD_Y40_YF] | inactive: 1.13
34 | MGGSVYFSYPD [HIKESHI_Y55] | inactive: 1.6
35 | MGGSLYFSYPD [HIKESHI_Y55_V54L] | inactive: 1.21
36 | MGGSLYFSFPD [HIKESHI_Y55_V54L_YF] | inactive: 1.45
37 | MGGSVYFSFPD [HIKESHI_Y55_YF] | inactive: 1.1
38 | GGQSVYHVHLH [HINT1_Y109] | inactive: 2.27

molecular target: SHP2 N-SH2 domain L43F; experiment: as above; settings: peptide library: pTyr-Var

Row | Binder | enrichment score
39 | LSAPCYLNRIS [HEXA_Y421_W420C] | inactive: 0.708
40 | GAVGHYVLAER [HFE_Y342_M339V] | inactive: 0.688
41 | GNLLIYTKFGK [HGD_Y166_E168K] | inactive: 1.77
42 | TFRPPYYHRNC [HGD_Y333] | inactive: 1.22
43 | TCRPPYYHRNC [HGD_Y333_F329C] | inactive: 1.92
44 | TFRPPYYHRDC [HGD_Y333_N337D] | inactive: 2.14
45 | TFRPPYFHRDC [HGD_Y333_N337D_YF] | inactive: 1.86
46 | FRPPYYHRNCM [HGD_Y334] | inactive: 3.15
47 | CRPPYYHRNCM [HGD_Y334_F329C] | active: 3.7
48 | CRPPFYHRNCM [HGD_Y334_F329C_YF] | inactive: 2.64
49 | FRPPFYHRDCM [HGD_Y334_N337D_YF] | inactive: 1.9
50 | CPYNLYAEQLS [HGD_Y40] | inactive: 1.06
51 | CPYNLYAEQFS [HGD_Y40_L44F] | inactive: 0.897
52 | CPFNLYAEQLS [HGD_Y40_YF] | inactive: 0.903
53 | MGGSVYFSYPD [HIKESHI_Y55] | inactive: 1.37
54 | MGGSLYFSYPD [HIKESHI_Y55_V54L] | inactive: 1.34
55 | MGGSLYFSFPD [HIKESHI_Y55_V54L_YF] | inactive: 1.7
56 | MGGSVYFSFPD [HIKESHI_Y55_YF] | inactive: 1.29
57 | GGQSVYHVHLH [HINT1_Y109] | inactive: 2.19

molecular target: SHP2 N-SH2 domain T42A; experiment: as above; settings: peptide library: pTyr-Var

Row | Binder | enrichment score
58 | LSAPCYLNRIS [HEXA_Y421_W420C] | inactive: 0.598
59 | GAVGHYVLAER [HFE_Y342_M339V] | inactive: 0.631
60 | GNLLIYTKFGK [HGD_Y166_E168K] | inactive: 1.66
61 | TFRPPYYHRNC [HGD_Y333] | inactive: 1.36
62 | TCRPPYYHRNC [HGD_Y333_F329C] | inactive: 1.11
63 | TFRPPYYHRDC [HGD_Y333_N337D] | inactive: 1.32
64 | TFRPPYFHRDC [HGD_Y333_N337D_YF] | inactive: 1.82
65 | FRPPYYHRNCM [HGD_Y334] | inactive: 2.43
66 | CRPPYYHRNCM [HGD_Y334_F329C] | inactive: 3.01
67 | CRPPFYHRNCM [HGD_Y334_F329C_YF] | inactive: 2.06
68 | FRPPFYHRDCM [HGD_Y334_N337D_YF] | inactive: 1.96
69 | CPYNLYAEQLS [HGD_Y40] | inactive: 0.887
70 | CPYNLYAEQFS [HGD_Y40_L44F] | inactive: 0.936
71 | CPFNLYAEQLS [HGD_Y40_YF] | inactive: 1.1
72 | MGGSVYFSYPD [HIKESHI_Y55] | inactive: 1.2
73 | MGGSLYFSYPD [HIKESHI_Y55_V54L] | inactive: 1.09
74 | MGGSLYFSFPD [HIKESHI_Y55_V54L_YF] | inactive: 1.12
75 | MGGSVYFSFPD [HIKESHI_Y55_YF] | inactive: 1.26
76 | GGQSVYHVHLH [HINT1_Y109] | inactive: 2.07

molecular target: SHP2 N-SH2 domain T52S; experiment: as above; settings: peptide library: pTyr-Var

Row | Binder | enrichment score
77 | LSAPCYLNRIS [HEXA_Y421_W420C] | inactive: 0.71
78 | GAVGHYVLAER [HFE_Y342_M339V] | inactive: 0.443
79 | GNLLIYTKFGK [HGD_Y166_E168K] | inactive: 1.53
80 | TFRPPYYHRNC [HGD_Y333] | inactive: 1.6
81 | TCRPPYYHRNC [HGD_Y333_F329C] | inactive: 1.48
82 | TFRPPYYHRDC [HGD_Y333_N337D] | inactive: 2.15
83 | TFRPPYFHRDC [HGD_Y333_N337D_YF] | inactive: 2.05
84 | FRPPYYHRNCM [HGD_Y334] | inactive: 3.09
85 | CRPPYYHRNCM [HGD_Y334_F329C] | active: 4.48
86 | CRPPFYHRNCM [HGD_Y334_F329C_YF] | inactive: 2.37
87 | FRPPFYHRDCM [HGD_Y334_N337D_YF] | inactive: 2.1
88 | CPYNLYAEQLS [HGD_Y40] | inactive: 1.05
89 | CPYNLYAEQFS [HGD_Y40_L44F] | inactive: 0.886
90 | CPFNLYAEQLS [HGD_Y40_YF] | inactive: 1.09
91 | MGGSVYFSYPD [HIKESHI_Y55] | inactive: 1.21
92 | MGGSLYFSYPD [HIKESHI_Y55_V54L] | inactive: 1.02
93 | MGGSLYFSFPD [HIKESHI_Y55_V54L_YF] | inactive: 1.02
94 | MGGSVYFSFPD [HIKESHI_Y55_YF] | inactive: 1.39
95 | GGQSVYHVHLH [HINT1_Y109] | inactive: 2.25

molecular target: SHP2 N-SH2 domain wild-type; experiment: as above; settings: peptide library: pTyr-Var

Row | Binder | enrichment score
96 | LSAPCYLNRIS [HEXA_Y421_W420C] | inactive: 0.958
97 | GAVGHYVLAER [HFE_Y342_M339V] | inactive: 0.845
98 | GNLLIYTKFGK [HGD_Y166_E168K] | inactive: 2.7
99 | TFRPPYYHRNC [HGD_Y333] | inactive: 1.53
100 | TCRPPYYHRNC [HGD_Y333_F329C] | inactive: 0.934
101 | TFRPPYYHRDC [HGD_Y333_N337D] | inactive: 1.8
102 | TFRPPYFHRDC [HGD_Y333_N337D_YF] | inactive: 1.67
103 | FRPPYYHRNCM [HGD_Y334] | inactive: 2.49
104 | CRPPYYHRNCM [HGD_Y334_F329C] | inactive: 2.85
105 | CRPPFYHRNCM [HGD_Y334_F329C_YF] | inactive: 2.09
106 | FRPPFYHRDCM [HGD_Y334_N337D_YF] | inactive: 2.09
107 | CPYNLYAEQLS [HGD_Y40] | inactive: 1.16
108 | CPYNLYAEQFS [HGD_Y40_L44F] | inactive: 0.978
109 | CPFNLYAEQLS [HGD_Y40_YF] | inactive: 1.63
110 | MGGSVYFSYPD [HIKESHI_Y55] | inactive: 1.54
111 | MGGSLYFSYPD [HIKESHI_Y55_V54L] | inactive: 1.18
112 | MGGSLYFSFPD [HIKESHI_Y55_V54L_YF] | inactive: 2.09
113 | MGGSVYFSFPD [HIKESHI_Y55_YF] | inactive: 1.78
114 | GGQSVYHVHLH [HINT1_Y109] | inactive: 2.46
